This is one part of the list.
Test system: PfSIP2 AP2 domain 1 (GST-tagged)
Test: gcPBM binding intensity (ln(normalized median fluorescence intensity)); higher = stronger DNA binding
Procedure, shortened: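 After 1 h on an Agilent 4 × 180k array of primer-extended double-stranded 36-bp intergenic genomic probes and negative controls, bound GST-tagged P. falciparum DNA-binding domains were detected with Alexa488 anti-GST antibody and scanned at 488 nm. The domains had been expressed in E. coli, and binding took place in 1× PBS with 1% milk, 0.2 mg/ml BSA, 0.5% salmon testes DNA and 0.03% Triton X-100. Binding intensity is the highest Masliner-normalised natural-log median intensity across replicate spots of either probe orientation.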

Sequence	gcPBM binding intensity (ln)
TCCTATATCACAAATGTGCACAGAAAAAAAAAATAT	9.85
ATATATATATACATACGTACACACAAATATTAAAAT [XGTACX_site4007]	8.63
AATATATATAATAATTGTACAATACGTATGTTATAT [XGTACX_site8745]	7.14
TGTATACATAATATTTGTACATATTGTTATATATAT [XGTACX_site740]	7.6
TTATAAAAAAAAAAAAAAAAGAAAATGAATTCACGA [CACACA_negctrl_site1248]	6.74
ATTTTATTTTTTGAGTGTACTAGTTCAACAACTCCG [XGTACX_site8600]	7.19
TTCGACGAGAGCAAGTGTACTCTTGAATAATTTATA [XGTACX_site7613]	6.8
TGTTATATATTATATACATGCACAAAAGCAACACAA [TGCATGCA_site1009]	7.75
TGAATTTCAAAACAGTGTACATTAATATATATATAA [XGTACX_site7951]	6.87
ATATTTATGACCGTACGTACCTAACAATACAATCAA [XGTACX_site4511]	7.32
ATAATATATATATGTAGTACGTATATAATTTTAATA [XGTACX_site5228]	7.29
AAAAATAAAAAAAACACACATACCTTATTTTTGTTC [CACACA_site2634]	7.04
AATTAAAATTTTTTTTTTTTTTTTTTTTTTCTATTA [CACACA_negctrl_site1585]	6.59
TATATATCCTTCTATGCATGCATATGGATAGATTTC [TGCATGCA_site58]	6.78
TATATATAGAAACACACACACAAAAAAAAAAAAAAA [CACACA_site1506]	6.9
ATTTAAAAAACTTTTAGCAAAAAAAAAAAATAATAA [TGCATGCA_negctrl_site191]	6.69
AAATTGATATTATATATATATATATATATATATATA [GTGCAC_negctrl_site482]	9.42
TTGTTTTGCTAAAAATGTACTCTATATAAAAGCTTT [XGTACX_site4027]	6.84
TATATATATTATATATGTACACATATGTGAGAATGA [XGTACX_site2992]	7.6
TATCAAAATAAATGCACACAAATTGCACATATCTAT [CACACA_site1097]	8.65
ATTTATATGTAGATGTGTACTTAATTGTAATGTGTT [XGTACX_site6422]	7.15
CAAAAACATACCTACACACACAATATGTATAAATAA [CACACA_site7617]	6.97

Sequence	gcPBM binding intensity (ln)
AACTTTTTTATATGCACACATAAACAAGGATATATA [CACACA_site2874]	7.52
AAAAAAAAAAAAAACACACACACACCCATACACATA [CACACA_site2860]	7.45
TACTTCGATAATAATCGTACATATATATTGTATTTA [XGTACX_site5700]	7.12
CAAAAAATACGATGTTGTACTATGTATTCCTGATGT [XGTACX_site246]	6.88
TATATATACATAAAAACATGCAATATATACACATTA [TGCATGCA_site444]	7.07
TTTTTTTGCCATATTACACACACACCGGTAAACCCC [CACACA_site8475]	7.51
TATAAATAAATAAACACACACAAATAAAATAAAAAA [CACACA_site7623]	7.05
TTTATTTATTTATTCTTATTTTTTTTTTTTTTTACT [CACACA_negctrl_site257]	6.8
ACATATTAGGGTCATGAACACACAAAAAAAAAAAAA [CACACA_site8218]	6.99
AATTCAGCTTTACAACGTACACAATCATATGTCTAT [XGTACX_site8113]	7.07
TAATACATAAATGATTGTACATAAGAATTGAAACAT [XGTACX_site4583]	7
ATGAAGATTTAAAAATGTACATATGATCTATGTCCT [XGTACX_site8409]	6.95
TCTAGGAAAAATTATAGTACACAAAAATATATATAT [XGTACX_site4136]	8.21
TATGACACTTTGAAGGGTACATGCAGAAAAAAAAAA [XGTACX_site569]	7.18
TTATATGCACTTTTTGCACACGTATGAATAACAAAA [CACACA_site1811]	9.55
TATATATATTAAAAACGTACAAAATAAGAATTAATT [XGTACX_site5979]	7.24
GGATATATTTTATGTACACACACATATAAGGGATTA [CACACA_site4181]	7.1
CATAAAAATGGATACACACACATAATATATATATAT [CACACA_site3619]	9.01
AAAAAAATTAATGTGTGTACTTAGATATAATGTTTA [XGTACX_site8862]	6.99
TAATTTTTTTTTTATTGTACTTAATATTTTTAATTT [XGTACX_site5929]	6.94
TTACAAATATTATAAAGTACAAACCAGTAGATTTTG [XGTACX_site2272]	6.81
TATTTTTTTTTTTTTTTTTTTACCTTTCCACTCAAA [CACACA_negctrl_site1454]	6.76

Sequence	gcPBM binding intensity (ln)
TTTTTTTTTTTTAAAAGTACATAGTAGTAATTATAG [XGTACX_site4232]	7.21
TCATTCTAAATATAAACACACATAAATATGTACATT [CACACA_site7555]	7.09
ATTTCATACAGACACACACACAAACAAACATATATA [CACACA_site979]	7.43
GTGAAGGTTTATATGTGTACATATATGTATTATATA [XGTACX_site326]	7.22
ATTATATATACATATACACACATACGTACATACATA [CACACA_site9194]	7.36
TTTTTTTTTTTTAATGCACACAGTGAACTTTTACTT [CACACA_site3567]	7.18
GACATTTCTTGGGATACATGCATGTCCCAGAACAAA [TGCATGCA_site271]	6.93
TTTAATAAATTGTGTACACAAAACATATAAATTTCG [CACACA_site5644]	7.32
ATTATCAAGACATTGCGTACTTAAAAAAAAAAAAAT [XGTACX_site6347]	6.95
TTATTATTCATATATTCACACATTAAAATTTTTCAA [CACACA_site4243]	7
CATATATAATAATATTGTACATATATAATAATAATA [XGTACX_site3338]	6.93
TAATTTACACCTACGTGTACACACAAAAATATGTTT [XGTACX_site1868]	7.3
TTTATTATCAAGATTGCACACCCTTATGAACTTTTT [CACACA_site3166]	7.23
ACAAAAAAAAAGGAAACACACAAAAAAAAAAAATAA [CACACA_site3523]	6.88
ACCTATAAAAAATAATGTACAGGAAGAAATATAAGG [XGTACX_site5822]	7.4
ACTATATTTCTATAATGTACAAAAATAAATCATATG [XGTACX_site3337]	7.11
AAGATCATATATTCGTGGGTATAAAAAGTTATAATA [TGCATGCA_negctrl_site439]	6.85
AGAAATATGTTGAAGCATTTATAATGTAGATATAAG [GTGCAC_negctrl_site640]	7.02
AAAAAAAAAAAAAATACACACAAACACAAATTAAAT [CACACA_site5982]	7.24
GTAATATTATAATATACACACATAGAATATATATAT [CACACA_site413]	8.6
TGTTTACACTTTTTTTGTACACATAATTTTATTTGA [XGTACX_site3760]	7.1
AAAAAAAAAAAAAACACACACATATAACATATTTAA [CACACA_site6745]	7.33

Sequence	gcPBM binding intensity (ln)
TATTCTAGTCTGCTTACACACATATTTATATTTATA [CACACA_site7432]	7.25
TAATATTTTATTTTTGTTGTGGATCCAAAAAAAAAA [CACACA_negctrl_site846]	6.84
CTATATATTTAAAAAAGTACAAATATAAAAATATAT [XGTACX_site676]	7.09
ATTTTTTTTAAACGAAGTACAATTTGTGCATTGGAA [XGTACX_site8109]	7.39
TTTTTTTTTTTTGTAGTGCAAATTAAAAATATATGT	8.09
TATATATATATATATGTATGCATGTCCTTTTTTATT [TGCATGCA_site344]	9.1
TGTTTATCATATTTGTGTCCTCATTTTTTAGTATCA [XGTACX_site947]	6.98
ATTTTTTTTTTTTTTTTTTTTTTTTTTTTTTTATGC [CACACA_negctrl_site1018]	6.98
TTATTTCTTCAGAAAAAATTAAAAAATTAAACAATA [CACACA_negctrl_site169]	6.76
TATGTTCCGAAGGTTGTACACACATAGAAATATACA [CACACA_site9285]	7.08
GGGAGGATATTACACAGTACCCAGGAAATCTACGGA [XGTACX_site4874]	6.99
TTTTTTTTTTTTGTAACATGCAAACAACAATATGGG [TGCATGCA_site695]	7.33
ATGTAATTGTATACATGTACGCAAACACAAAAGCAT [XGTACX_site6771]	7.24
AAGGAAAAAACAAATACACACAAAAACGCATTATAA [CACACA_site3466]	6.82
ATGAACTTATTTTAGTGTACTAAAAAATATGACTTC [XGTACX_site470]	6.99
TACATAATTTTAATCACACACAAACAAACACATACA [CACACA_site194]	7.38
GTAAGTATATATAATAGTACATATATATTAATATAT [XGTACX_site4314]	7.18
TTTTGTTCATACAAATTGGAACAAGACAAAAATATA [XGTACX_negctrl_site327]	7.16
TATCATTTTGAAGTATGTACTTATTTTATTAAAATA [XGTACX_site7784]	6.97
ATTATATTAAAATATTCACACACTAACGTAAATCAT [CACACA_site8887]	6.78
TAAATACATAAATACACACACATATATATATATATA [CACACA_site5549]	9.79
TAGGTCATATTTTTTGCACACAAAAAAAAATATAAA [CACACA_site3380]	7.29

— the supplement of paper PMC11417369
